{"source": "PubChem BioAssay AID540267", "about": "(National Center for Advancing Translational Sciences (NCATS), 2011)", "note": "In all, about 340,000 compounds went through this assay and about 530 (0.16%) were called active. This list was built around the results that the source calls inconclusive (neither active nor inactive); the mix of calls is not that of the screen. No stated cut-off is given here; in the data, active means activity change below about -80%; inconclusive means between about -30% and that limit; inactive means weaker than that. On the % scale 0 is the no-effect control and ±100 the full control effect."}
{"assay": "Small Molecules that selectively kill Giardia lamblia: qHTS;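 further: parasites exposed to compound for two days anaerobically before the ATP read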", "conditions": "Giardia lamblia trophozoite viability; at 7.66 µM; hits give low values", "outline": "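Media and compound were dispensed first, then trophozoites at 100 cells/well; plates sat 48 hrs at 37 deg C without oxygen before ATP luminescence reagent was added and read after 15-30 min at room temperature.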"}
{"smiles": "COc1cc2sc3ccc(-c4ccc(CN5CCOCC5)cc4)cc3c(=O)c2cc1OC", "activity change": "inconclusive: -31.3% [inhibitor]"}
{"smiles": "CCCCOC(=O)c1ccc(OC(=O)N2CCOCC2)cc1", "activity change": "inconclusive: -36.6% [inhibitor]"}
{"smiles": "Cc1[nH]c2ccccc2c1C(=O)C(C)OC(=O)c1ccc([N+](=O)[O-])o1", "note": "(centres undefined)", "activity change": "inconclusive: -74.6% [inhibitor]"}
{"smiles": "COc1ccc(C(=O)N2CCN(S(=O)(=O)c3ccc(F)cc3)CC2)cc1OC", "activity change": "inconclusive: -33.7% [inhibitor]"}
{"smiles": "Cc1c(NC(=S)N/N=C/c2ccc(N(C)C)cc2)c(=O)n(-c2ccccc2)n1C", "activity change": "inactive: -0.722%"}
{"smiles": "O=C(NCC(c1ccco1)N1CCOCC1)c1cccc(Cl)c1", "note": "(centres undefined)", "activity change": "inconclusive: -37.5% [inhibitor]"}
{"smiles": "COc1ccc(OCC(=O)NNC(=O)C(=O)Nc2ccccc2)cc1", "activity change": "inactive: 9.36%"}
{"smiles": "COc1ccc(-c2ccc(-c3cc(=O)oc4cc(OC)c(OC)c(OC)c34)cc2)cc1F", "activity change": "inactive: 0.178%"}
{"smiles": "CC1CC(=O)c2c(cc3c(-c4c(O)cc(O)c5c(O)c6c(cc45)OC(C)CC6=O)c(O)cc(O)c3c2O)O1", "note": "(centres undefined)", "activity change": "inconclusive: -74.7% [inhibitor]"}
{"smiles": "Cc1ccc2c(C(=O)CCl)c(C)[nH]c2c1", "activity change": "inconclusive: -31.9% [inhibitor]"}
{"smiles": "Cc1ccc(S(=O)(=O)Nc2ccc3ccccc3c2)cc1", "activity change": "inconclusive: -32.2% [inhibitor]"}
{"smiles": "Cc1cc(C(=O)COC(=O)c2cccnc2Cl)c(C)n1C", "activity change": "inconclusive: -34.6% [inhibitor]"}
{"smiles": "O=C(Nc1cccc2ccccc12)C12CC3CC(C1)CC(n1cnc([N+](=O)[O-])n1)(C3)C2", "activity change": "inconclusive: -50.2% [inhibitor]"}
{"smiles": "O=C1OCC2=C1C(c1ccccc1)CC(=O)N2c1ccc(F)cc1", "note": "(centres undefined)", "activity change": "inactive: -6.62%"}
{"smiles": "O=c1[nH]c(CCl)nc2cc(-c3ccc(F)cc3)sc12", "activity change": "inconclusive: -35.8% [inhibitor]"}
{"smiles": "Nc1c(C(=O)Nc2cccc(C(=O)O)c2)sc2nc3c(cc12)CCCC3", "activity change": "inconclusive: -66% [inhibitor]"}
{"smiles": "CNC(=O)NC(=O)C(C)OC(=O)c1cc2c(s1)CCCCC2", "note": "(centres undefined)", "activity change": "inactive: 2.65%"}
{"smiles": "CN(C)c1ccc(N=Nc2ccccc2C(=O)OCC(=O)Nc2ccccc2C(F)(F)F)cc1", "activity change": "inconclusive: -35.6% [inhibitor]"}
{"smiles": "CC1=C(C(=O)OCc2ccccc2)C(c2ccc(Br)cc2)NC(=O)N1CCCC(=O)O", "note": "(centres undefined)", "activity change": "inconclusive: -32% [inhibitor]"}
{"smiles": "Cc1cc(C)cc(C(=O)N2CCN=C2SCc2ccc([N+](=O)[O-])cc2)c1", "activity change": "inconclusive: -32.7% [inhibitor]"}
{"smiles": "O=C(Cn1ncc(N2CCOCC2)c(Cl)c1=O)c1ccc(Cl)cc1", "activity change": "inconclusive: -42.7% [inhibitor]"}
{"smiles": "Cc1ccc(Cl)c(OCCN2CCCC(C)C2)c1", "note": "(centres undefined)", "activity change": "inactive: 1.25%"}
{"smiles": "CCCC[C@@H]1CCCO[C@@](C(=O)NCc2ccc(S(C)(=O)=O)cc2)(C(F)(F)F)C1", "activity change": "inactive: 29.7%"}
{"smiles": "CC(=O)c1c(C)[nH]c(C(=O)Nc2nc(C)cs2)c1C", "activity change": "inconclusive: -53.9% [inhibitor]"}
{"smiles": "Nc1ccc(-n2nc3ccccc3n2)cc1", "activity change": "inconclusive: -35.7% [inhibitor]"}
{"smiles": "COc1ccc(C(=O)NCCc2ccccn2)cc1S(=O)(=O)Nc1ccc(Br)cc1", "activity change": "inconclusive: -30.7% [inhibitor]"}
{"smiles": "Cn1c(SCc2ccccn2)nc2c1c(=O)[nH]c(=O)n2C", "activity change": "inconclusive: -39.5% [inhibitor]"}
{"smiles": "CCCC/C(O)=C1\\C(=O)CC(C)(C)CC1=Nc1ccc(N)cc1", "activity change": "inconclusive: -33.4% [inhibitor]"}
{"smiles": "Cc1cccc(NC(=O)CN2CCN(CC(=O)Nc3ccc(-c4ccccc4)cc3)CC2)c1C", "activity change": "inconclusive: -32.1% [inhibitor]"}
{"smiles": "COc1ccccc1N1CCN(C(=O)CCc2nnc3ccc(N4CCOCC4)nn23)CC1", "activity change": "inconclusive: -33.8% [inhibitor]"}
{"smiles": "Nc1c(C(=O)NCc2ccco2)nnn1-c1ccccc1", "activity change": "inactive: 6.22%"}
{"smiles": "COCCn1c(CCc2ccccc2)n[nH]c1=S", "activity change": "inconclusive: -30.6% [inhibitor]"}
{"smiles": "O=[N+]([O-])c1nn(-c2ccc3c(c2)OCCO3)n(O)c1=NC1CCCCCC1", "activity change": "inconclusive: -74.4% [inhibitor]"}
{"smiles": "O=c1cc(-c2ccccc2)oc2cc(O)c(O)c(O)c12", "activity change": "inactive: -13.3%"}
{"smiles": "CN(C)C(=O)Cn1c(SCC(=O)NCc2ccc3c(c2)OCO3)nc2ccccc21", "activity change": "inactive: -21.1%"}
{"smiles": "COc1ccc(NC(=O)c2cccs2)cn1", "activity change": "inconclusive: -35.6% [inhibitor]"}
{"smiles": "CN(C)C(=O)CCc1ccc2c3c([nH]c2c1)[C@]1(C)[C@@H](C(=O)N2CCCCC2)C[C@H](CC(=O)NCc2ccco2)C(=O)N1CC3", "activity change": "inconclusive: -36.5% [inhibitor]"}
{"smiles": "CC(=O)N1CCN(S(=O)(=O)c2cccc(C(=O)NNC(=O)Cn3ccc(C(F)(F)F)n3)c2)CC1", "activity change": "inconclusive: -36.5% [inhibitor]"}
{"smiles": "CCCCCn1c(=O)[nH]c2cc(C(=O)NCc3ccc4c(c3)OCO4)ccc2c1=O", "activity change": "inactive: 1.66%"}
{"smiles": "COc1ccc(CNC(=O)[C@H](C)NC(=O)C2CCN(S(=O)(=O)c3ccccc3)CC2)cc1", "activity change": "inconclusive: -42.6% [inhibitor]"}
{"smiles": "CC(C)c1nnc(NC(=O)c2nc(S(=O)(=O)Cc3ccccc3F)ncc2Cl)s1", "activity change": "inconclusive: -30.1% [inhibitor]"}
{"smiles": "CCN(CC)C(=O)C(=O)Nc1ccc(OCc2ccccc2)cc1", "activity change": "inconclusive: -37.9% [inhibitor]"}
{"smiles": "COc1ccc(NC(=O)c2ccccc2)cc1NS(=O)(=O)c1ccc(F)cc1", "activity change": "inactive: 0.61%"}
{"smiles": "O=c1cc(-c2ccccc2)[nH]c2nc3ccccc3n12", "activity change": "inconclusive: -65.3% [inhibitor]"}
{"smiles": "CC(CSc1nnnn1-c1ccccc1)Cn1c(N2CCCC2)nc2c1c(=O)[nH]c(=O)n2C", "note": "(centres undefined)", "activity change": "inconclusive: -61.1% [inhibitor]"}
{"smiles": "CN(c1ccccc1)S(=O)(=O)c1cccc(C(=O)OCC(=O)Nc2ccc(C(N)=O)cc2)c1", "activity change": "inconclusive: -33.4% [inhibitor]"}
{"smiles": "CCOC(=O)c1c(NC(=O)C(C)Sc2c[nH]c3ccccc23)sc2c1CCC2", "note": "(centres undefined)", "activity change": "inconclusive: -32.3% [inhibitor]"}
{"smiles": "CCOC(=O)N1CCN(C(=O)c2ccc3c(c2)NC(=O)/C(=C\\c2cccc(C)c2)S3)CC1", "activity change": "inconclusive: -30.5% [inhibitor]"}
{"smiles": "CCOC(=O)C(c1ccccc1)C(Nc1ccccc1)c1ccccn1", "note": "(centres undefined)", "activity change": "inconclusive: -40.5% [inhibitor]"}
{"smiles": "COc1ccc(-c2cc3c(nn2)-c2ccccc2C3=O)cc1", "activity change": "inconclusive: -65.8% [inhibitor]"}
{"smiles": "c1ccc2nc(-c3ccc(N4CCOCC4)cc3)ccc2c1", "activity change": "inconclusive: -52.2% [inhibitor]"}
{"smiles": "CN(C(=O)c1cccc(NC(=O)Cc2ccc(NC(=O)C3CCCN(C(=O)CCc4ccccc4)C3)cc2)c1)C1CC1", "note": "(centres undefined)", "activity change": "inconclusive: -33.8% [inhibitor]"}
{"smiles": "COc1ccc(Nc2ccc([N+](=O)[O-])c3nonc23)c(OC)c1", "activity change": "inconclusive: -51.3% [inhibitor]"}
{"smiles": "CC1=NN=C(c2ccccc2)C(c2c[nH]c3ccccc23)N1O", "note": "(centres undefined)", "activity change": "inactive: -11.4%"}
{"smiles": "O=C(NCC1COc2ccccc2O1)c1cccc(S(=O)(=O)NCc2ccccc2)c1", "note": "(centres undefined)", "activity change": "inconclusive: -30.7% [inhibitor]"}
{"smiles": "COCCN1C(=O)c2cc(C(=O)Nc3ccc(C)c(F)c3)ccc2C1Nc1ccc(C)c(F)c1", "note": "(centres undefined)", "activity change": "inconclusive: -37.5% [inhibitor]"}
{"smiles": "O=C(c1ccc2nc(Cc3cccc(Cl)c3)oc2c1)N1CCC[C@H]1CO", "activity change": "inconclusive: -30.4% [inhibitor]"}
{"smiles": "Cc1ccccc1N=C1NC(=O)/C(=C/c2cccnc2)S1", "activity change": "inconclusive: -34.6% [inhibitor]"}
{"smiles": "CCC1CCCCN1C(=S)NC(=O)c1ccco1", "note": "(centres undefined)", "activity change": "inconclusive: -32.1% [inhibitor]"}
{"smiles": "Cn1ncc([N+](=O)[O-])c1C(=O)N/N=C/c1c[nH]c2ccccc12", "activity change": "inconclusive: -33.4% [inhibitor]"}
{"smiles": "CCOC(=O)c1nn(-c2ccc3c(c2)CCN3C(C)=O)cc1O", "activity change": "inconclusive: -33.6% [inhibitor]"}
{"smiles": "COc1ccc(OC)c2c(C)c(C)[nH]c12", "activity change": "inconclusive: -45.3% [inhibitor]"}
{"smiles": "Cc1sc2ncn(CC(=O)N3CCN(c4ccccc4)CC3)c(=O)c2c1S(=O)(=O)N1CCOCC1", "activity change": "inactive: -6.54%"}
{"smiles": "O=C(Nc1nc2c(s1)CCCC2)c1cc(-c2ccccc2)nc2ccccc12", "activity change": "inactive: 1.24%"}
{"smiles": "N#CCC(=O)Nc1ccc(C(=O)OC(C(=O)Nc2ccc([N+](=O)[O-])cc2Br)c2ccccc2)cc1", "note": "(centres undefined)", "activity change": "inactive: -2.61%"}
{"smiles": "CC(NC(=O)c1ccc(N(C)C)c([N+](=O)[O-])c1)c1ccc(-n2ccnc2)cc1", "note": "(centres undefined)", "activity change": "inconclusive: -50.3% [inhibitor]"}
{"smiles": "CC(=O)C1=C(O)C(=O)N(c2ccc(O)cc2)C1c1cccc([N+](=O)[O-])c1", "note": "(centres undefined)", "activity change": "inconclusive: -30% [inhibitor]"}
{"smiles": "O=C(CCCc1ccccc1)c1ccc2c(c1)OCCO2", "activity change": "inconclusive: -67.5% [inhibitor]"}
{"smiles": "C[C@@H]1CCC(=O)N(CC[C@H](Sc2ccc(Br)cc2)c2ccccc2)CC1", "activity change": "inconclusive: -33.1% [inhibitor]"}
{"smiles": "CN(C)CC1CCC/C(=C\\c2ccc(OC(=O)c3ccc(Cl)cc3)cc2)C1=O", "note": "(centres undefined)", "activity change": "inactive: 10.1%"}
{"smiles": "CCCNC(=O)CSc1nccn1Cc1ccc(OC)cc1", "activity change": "inconclusive: -33.6% [inhibitor]"}
{"smiles": "CNc1nc(N)c([N+](=O)[O-])c(NC2CCCCC2)n1", "activity change": "inactive: -14.3%"}
{"smiles": "Cc1cc(C(=O)COC(=O)c2n[nH]c3ccccc23)c(C)n1CC1CCCO1", "note": "(centres undefined)", "activity change": "inconclusive: -42.6% [inhibitor]"}
{"smiles": "O=[N+]([O-])c1ccc(S(=O)(=O)N(CCCN2CCOCC2)Cc2cccs2)cc1", "activity change": "inconclusive: -37.9% [inhibitor]"}
